# Laboratory results as given in the supplement of paper PMC12217912.
# The list shows a part of the results. The full chains were built here from the parent and the listed change. Inactive controls read about 0.05.
# B1: TEV protease; numbered along this chain (parent)
# chain: MGESLFKGPRDYNPISSSICHLTNESDGHTTSLYGIGFGPFIITNKHLFRRNNGTLVVQSLHGVFKVKDTTTLQQHLVDGRDMIIIRMPKDFPPFPQKLKFREPQREERICLVTTNFQTKSMSSMVSDTSCTFPSGDGIFWKHWIQTKDGQCGSPLVSTRDGFIVGIHSASNFTNTNNYFTSVPKNFMELLTNQEAQQWVSGWRLNADSVLWGGHKVFMVKPEEPFQPVKEATQL
# Variants of: B1
# Experiment: raw area under fraction-flipped curve 0-4 h after induction (AUC4h, not background-subtracted), DNA-recorder readout of cleavage of the substrate (dimensionless); higher = more cleavage of the substrate by the protease variant
# Conditions: temperature: 34 °C; time window: 0-4 h after rhamnose induction
# Description: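 In vivo DNA recorder in E. coli TOP10(DE3) ΔrhaA at 34 °C. Each TEVp single-site mutant (parent TEVp 0) is paired with a single-site variant of the 7-mer TEVs (canonical ENLYFQ|S). The substrate sits between flexible linkers in a Bxb1-sfGFP-TEVs-SsrA fusion, so cleavage stabilises Bxb1 and speeds flipping of a recombination array, read by NGS. The value is the raw area under the fraction-flipped curve over 0-4 h after rhamnose induction (AUC4h), with ≥20 reads per time point. It is not background-subtracted; inactive controls average about 0.047.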
# 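Note: Bxb1 expression induced with 0.2% (w/v) L-rhamnose at OD600 near 0.5, cultures sampled hourly, flipped fraction per protease–substrate barcode pair counted by paired-end Illumina sequencing.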
Variant,area with substrate ENLAFQS,area with substrate ENLCFQS,area with substrate ENLDFQS,area with substrate ENLEFQS,area with substrate ENLFFQS,area with substrate ENLHFQS,area with substrate ENLKFQS,area with substrate ENLNFQS,area with substrate ENLSFQS,area with substrate ENLGFQS,area with substrate ENLIFQS,area with substrate ENLLFQS,area with substrate ENLQFQS,area with substrate ENLRFQS,area with substrate ENLVFQS,area with substrate ENLWFQS,area with substrate ENLMFQS,area with substrate ENLPFQS,area with substrate ENLTFQS
MGESLFKGPRDYNPISSSICHLTNESDGHTTSLYGIGFGPFIITNKHLFRRNNGTLVVQSLHGVFKVKDTTTLQQHLVDGRDMIIIRMPKDFPPFPQKLKFREPQREERICLVTTNFQTKSMSSMVSDTSCTFPSGDGIFWKHWIQTKDGQCGSPLVSTRDGFIVGIHSASNFTNTNNYFTSVPKNFMELLTNQEAQQWVSGWRLNADSVLWGGHKVFMVKPEEPFQPVKEPTQL [A232P],0.0681,0.0864,0.0743,0.0665,0.105,0.0584,0.0804,0.0721,0.0592,,,,,,,,,,
MGESLFKGPRDPNPISSSICHLTNESDGHTTSLYGIGFGPFIITNKHLFRRNNGTLVVQSLHGVFKVKDTTTLQQHLVDGRDMIIIRMPKDFPPFPQKLKFREPQREERICLVTTNFQTKSMSSMVSDTSCTFPSGDGIFWKHWIQTKDGQCGSPLVSTRDGFIVGIHSASNFTNTNNYFTSVPKNFMELLTNQEAQQWVSGWRLNADSVLWGGHKVFMVKPEEPFQPVKEATQL [Y12P],,0.0779,0.0679,0.0578,0.0904,0.0654,0.0814,0.0687,0.0772,0.0685,0.0784,0.0692,0.0637,0.0762,0.0668,0.12,,,
MGESLFKGPRDYNPISSSICHLTNESDGHTTSLYGIGFGPFIITNKHLFRRNNGTLVVQSLHGVFKVKDTTTLQQHLVDGRDMIIIRMPKDFPPFPQKLKFREPQREERICLVTTNFQTKSMSSMVSDTSCTFPSGDGIFWKHWIQTKDGQCGSPLVSTRDGFIVGIHSASNFTNTNNYFTSVPKNFMELLTNQEAQQWVSGWRLNADSVLWGGHKVFMVKPEEPFQPVKEASQL [T233S],0.0921,,0.073,0.0681,0.124,0.0721,0.0834,0.0618,0.029,,0.0848,,0.0731,,,,0.0744,0.09,
MGESLFKGPRDYNPISSSICHLTNESDGHTTSLYGIGFGPFIITNKHLFRRNNGTLVVQSLHGVFKVKDTTTLQQHLVDGRDMIIIRMPKDFPPFPQKLKFREPQREERICLVTTNFQTKSMSSMVSDTSCTFPSGDGIFWKHWIQTKDGQCGSPLVSTRDGFIVGIHSASNFTNTNNYFTSVPKNFMELLTNQEAQQWVSGWRLNADSVLWGGHKVFMVKPEEPFQPVKEADQL [T233D],0.0659,0.0788,0.0582,,0.0858,0.0701,0.0918,0.0636,0.0407,0.0603,0.0886,0.0678,0.0402,0.0732,0.0954,0.0714,0.0868,0.0654,
MGESLFKGPRDYNPISSSICHLTNESDGHTTSLYGIGFGPFIITNKHLFRRNNGTLVVQSLHGVFKVKDTTTLQQHLVDGRDMIIIRMPKDFPPFPQKLKFREPQREERICLVTTNFQTKSMSSMVSDTSCTFPSGDGIFWKHWIQTKDGQCGSPLVSTRDGFIVGIHSASNFTNTNNYFTSVPKNFMELLTNQEAQQWVSGWRLNADSVLWGGHKVFMVKPEEPFQPVKEATQM [L235M],0.0867,0.0644,0.0584,0.0698,0.096,,0.0762,0.0668,0.0718,0.104,0.0849,0.0313,0.0752,0.0905,0.0528,0.069,0.0549,,
MGESLFKGPRDYNPISSSICHLTNESDGHTTSLYGIGFGPFIITNKHLFRCNNGTLVVQSLHGVFKVKDTTTLQQHLVDGRDMIIIRMPKDFPPFPQKLKFREPQREERICLVTTNFQTKSMSSMVSDTSCTFPSGDGIFWKHWIQTKDGQCGSPLVSTRDGFIVGIHSASNFTNTNNYFTSVPKNFMELLTNQEAQQWVSGWRLNADSVLWGGHKVFMVKPEEPFQPVKEATQL [R51C],,0.0675,0.0574,0.0636,0.0874,0.0742,0.0802,0.0897,,,,0.0882,0.0722,,0.0685,0.075,,0.0605,0.0831
MGESLFKGPRDYNPISSSIEHLTNESDGHTTSLYGIGFGPFIITNKHLFRRNNGTLVVQSLHGVFKVKDTTTLQQHLVDGRDMIIIRMPKDFPPFPQKLKFREPQREERICLVTTNFQTKSMSSMVSDTSCTFPSGDGIFWKHWIQTKDGQCGSPLVSTRDGFIVGIHSASNFTNTNNYFTSVPKNFMELLTNQEAQQWVSGWRLNADSVLWGGHKVFMVKPEEPFQPVKEATQL [C20E],,0.0517,0.0541,,0.0371,0.0419,0.0481,0.0534,0.0491,0.0373,,,0.0386,0.0383,,,,0.0438,0.0499
MGPSLFKGPRDYNPISSSICHLTNESDGHTTSLYGIGFGPFIITNKHLFRRNNGTLVVQSLHGVFKVKDTTTLQQHLVDGRDMIIIRMPKDFPPFPQKLKFREPQREERICLVTTNFQTKSMSSMVSDTSCTFPSGDGIFWKHWIQTKDGQCGSPLVSTRDGFIVGIHSASNFTNTNNYFTSVPKNFMELLTNQEAQQWVSGWRLNADSVLWGGHKVFMVKPEEPFQPVKEATQL [E3P],,0.0642,,0.115,0.0946,0.0699,0.0765,,,,0.064,,,,,0.0766,,0.0715,0.0721
MGESLFKGPRDYNPISSSICHLTNESDGHTTSLYGIGFGPFIITNKHLFRRNGGTLVVQSLHGVFKVKDTTTLQQHLVDGRDMIIIRMPKDFPPFPQKLKFREPQREERICLVTTNFQTKSMSSMVSDTSCTFPSGDGIFWKHWIQTKDGQCGSPLVSTRDGFIVGIHSASNFTNTNNYFTSVPKNFMELLTNQEAQQWVSGWRLNADSVLWGGHKVFMVKPEEPFQPVKEATQL [N53G],,0.0779,0.0632,0.0661,0.0962,0.0588,0.0732,0.0625,0.0616,0.0692,0.0815,0.0656,0.0756,0.058,,,0.0627,0.0733,0.0605
MGESLFKGPRDYNPISSSICHLQNESDGHTTSLYGIGFGPFIITNKHLFRRNNGTLVVQSLHGVFKVKDTTTLQQHLVDGRDMIIIRMPKDFPPFPQKLKFREPQREERICLVTTNFQTKSMSSMVSDTSCTFPSGDGIFWKHWIQTKDGQCGSPLVSTRDGFIVGIHSASNFTNTNNYFTSVPKNFMELLTNQEAQQWVSGWRLNADSVLWGGHKVFMVKPEEPFQPVKEATQL [T23Q],,0.0535,0.063,0.0719,0.088,0.0245,0.0679,0.0576,0.0742,,,,0.0569,0.0629,0.0998,0.0704,0.0752,0.0567,
MGESLFKGPRDYNPISSSICHLTNESDGHTTSLYGIGFGPFDITNKHLFRRNNGTLVVQSLHGVFKVKDTTTLQQHLVDGRDMIIIRMPKDFPPFPQKLKFREPQREERICLVTTNFQTKSMSSMVSDTSCTFPSGDGIFWKHWIQTKDGQCGSPLVSTRDGFIVGIHSASNFTNTNNYFTSVPKNFMELLTNQEAQQWVSGWRLNADSVLWGGHKVFMVKPEEPFQPVKEATQL [I42D],,0.0401,0.0525,0.0508,0.0402,0.0382,0.0385,0.0428,0.0467,,0.0435,,0.048,0.0512,0.0501,,0.014,0.0259,
MGESLFKGPRDYNPISSPICHLTNESDGHTTSLYGIGFGPFIITNKHLFRRNNGTLVVQSLHGVFKVKDTTTLQQHLVDGRDMIIIRMPKDFPPFPQKLKFREPQREERICLVTTNFQTKSMSSMVSDTSCTFPSGDGIFWKHWIQTKDGQCGSPLVSTRDGFIVGIHSASNFTNTNNYFTSVPKNFMELLTNQEAQQWVSGWRLNADSVLWGGHKVFMVKPEEPFQPVKEATQL [S18P],,0.0626,0.0591,,0.0759,0.0512,0.0402,0.0487,0.0357,,0.0607,0.0553,0.0563,0.049,,,,0.0429,
MGESLFKGPRDYNPISSSICHLTNESDGHTTSLYGIGFGPFIITNKHLFRRTNGTLVVQSLHGVFKVKDTTTLQQHLVDGRDMIIIRMPKDFPPFPQKLKFREPQREERICLVTTNFQTKSMSSMVSDTSCTFPSGDGIFWKHWIQTKDGQCGSPLVSTRDGFIVGIHSASNFTNTNNYFTSVPKNFMELLTNQEAQQWVSGWRLNADSVLWGGHKVFMVKPEEPFQPVKEATQL [N52T],,0.0634,0.0565,,0.0693,0.0526,0.0617,0.064,0.0483,0.0781,0.0679,0.0505,0.0605,0.0548,,0.0496,,0.0601,
MGESLFKGPRDYNPISSSICHLTNESDGHTTSLYGIGFGPFIITNKHLFRRFNGTLVVQSLHGVFKVKDTTTLQQHLVDGRDMIIIRMPKDFPPFPQKLKFREPQREERICLVTTNFQTKSMSSMVSDTSCTFPSGDGIFWKHWIQTKDGQCGSPLVSTRDGFIVGIHSASNFTNTNNYFTSVPKNFMELLTNQEAQQWVSGWRLNADSVLWGGHKVFMVKPEEPFQPVKEATQL [N52F],,0.056,0.0636,0.0833,0.052,0.0627,0.0646,0.0624,0.0593,,,0.0488,0.0605,0.0645,0.0627,0.0518,,0.0587,
MGESLFKGPRDYNPISSSICHLTNESDGHTTSLYGNGFGPFIITNKHLFRRNNGTLVVQSLHGVFKVKDTTTLQQHLVDGRDMIIIRMPKDFPPFPQKLKFREPQREERICLVTTNFQTKSMSSMVSDTSCTFPSGDGIFWKHWIQTKDGQCGSPLVSTRDGFIVGIHSASNFTNTNNYFTSVPKNFMELLTNQEAQQWVSGWRLNADSVLWGGHKVFMVKPEEPFQPVKEATQL [I36N],,0.0394,0.0438,0.0457,0.0687,0.0488,0.0544,0.0496,0.0406,0.0608,0.0618,0.0308,0.0579,0.0544,,,0.0482,0.052,0.0605
MGESLFKGPRIYNPISSSICHLTNESDGHTTSLYGIGFGPFIITNKHLFRRNNGTLVVQSLHGVFKVKDTTTLQQHLVDGRDMIIIRMPKDFPPFPQKLKFREPQREERICLVTTNFQTKSMSSMVSDTSCTFPSGDGIFWKHWIQTKDGQCGSPLVSTRDGFIVGIHSASNFTNTNNYFTSVPKNFMELLTNQEAQQWVSGWRLNADSVLWGGHKVFMVKPEEPFQPVKEATQL [D11I],,0.0628,0.0687,0.0732,0.0857,0.0801,,0.0659,,,0.0846,0.0605,,0.0634,0.0983,0.0598,,,
MGESLFKGPRDYNPISSSICHLTNESDGHTTSLYGILFGPFIITNKHLFRRNNGTLVVQSLHGVFKVKDTTTLQQHLVDGRDMIIIRMPKDFPPFPQKLKFREPQREERICLVTTNFQTKSMSSMVSDTSCTFPSGDGIFWKHWIQTKDGQCGSPLVSTRDGFIVGIHSASNFTNTNNYFTSVPKNFMELLTNQEAQQWVSGWRLNADSVLWGGHKVFMVKPEEPFQPVKEATQL [G37L],,0.0615,0.0729,0.0647,0.0735,0.0527,0.0938,,0.0416,,,,0.0625,0.0557,,,,0.0597,
MGESLFKGPRDYNPISSSICKLTNESDGHTTSLYGIGFGPFIITNKHLFRRNNGTLVVQSLHGVFKVKDTTTLQQHLVDGRDMIIIRMPKDFPPFPQKLKFREPQREERICLVTTNFQTKSMSSMVSDTSCTFPSGDGIFWKHWIQTKDGQCGSPLVSTRDGFIVGIHSASNFTNTNNYFTSVPKNFMELLTNQEAQQWVSGWRLNADSVLWGGHKVFMVKPEEPFQPVKEATQL [H21K],,0.0738,0.0626,,0.0796,0.0754,0.0816,0.0719,0.06,0.0704,,0.0788,0.0623,0.0716,0.08,0.0621,0.0948,0.0956,
